Data: PubChem BioAssay AID686978 (National Center for Advancing Translational Sciences (NCATS), 2013)
“And” between values parts separate entries of the source, which are not always exact repeats. Identical values can stand only once. Among all 420,000 compounds or so, about 64,000 (15%) were called active. The shares of active, inactive and inconclusive entries below differ from those in the screen. Calls come from the whole dose curve; as a rule, active = well fitted inhibition curve with a large enough effect; inconclusive = small, poorly fitted or top-dose-only effect; inactive = flat fitted curve, though single readings scatter. No potency is given beside an inconclusive call; the fits are too rough. The source holds several records for some structures; these can differ, active in one and inactive in another.

experiment: qHTS for Inhibitors of human tyrosyl-DNA phosphodiesterase 1 (TDP1): qHTS in cells in absence of CPT; conditions: DT40 Tdp1-/- hTDP1 cells, no CPT, ATP luminescence, 48 h; activity change, negative = growth inhibition: at 46.2 µM (top of the series) unless noted; note: nearly all actives have a fitted effect of over 55% in size
In short: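 Seeded 400 DT40-hTDP1 cells/well (vehicle DMSO, no 20 nM CPT); pinned compounds; ≥48 hr at 37 °C; CellTiter-Glo luminescence as viability measure.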
% is set by controls: 0 for no effect and ±100 for the full control effect; potency is the fitted concentration of half-maximal effect; tags give direction and shape of the fitted curve.

Row | Structure (SMILES) | Potency | activity change, negative = growth inhibition
1 | C=CCc1cc(C)ccc1OCCCC(C(=O)OCC)C(=O)OCC | inconclusive [inhibitor, partial curve] | –
2 | CC12CCC3C(CCC4CC(=O)C(C(O)C(F)(F)F)CC43C)C1CCC2O (stereo unspecified) | inconclusive [inhibitor, single point] | –
3 | COc1ccc(O)c(CN2CCCC(C(=O)c3sccc3C)C2)c1 (stereo unspecified) | inconclusive [inhibitor, partial curve, poor fit] | –
4 | CN1CCN(c2ccc([N+](=O)[O-])c(NCC3CCCO3)c2)CC1 (stereo unspecified) | inconclusive [inhibitor, partial curve, poor fit] | –
5 | CCCCOP(=O)(c1ccc(N(C)C)cc1)C(Nc1ccccc1)c1ccccc1 (stereo unspecified) | active: 20.6 µM | –
6 | COc1ccc(OCC(=O)N2CCN(C(C)C)CC2)cc1 | – | inactive: -9.09%
7 | Cc1cccc2nc(-c3ccccc3)c(-c3ccc(CN4CCC(n5c(=O)[nH]c6ccccc65)CC4)cc3)nc12 | active: 13 µM | –
8 | O=C1NC(=O)C(=Cc2ccc3ccccc3c2)C(=O)N1 | – | inactive: -1.63%
9 | CC(C)(Cc1c[nH]c2ccc(Cl)cc12)NCCOc1ccccc1OCC1CC1 | active: 26.6 µM and active: 5.17 µM | –
10 | Cc1cccc(N2C(=O)NC(=O)C3(Cc4cc(C)ccc4N(C)C3)C2=O)c1 (stereo unspecified) | inconclusive [inhibitor, single point] | –
11 | CCCCn1c(O)c(C(C)=NCc2ccc3c(c2)OCO3)c(=O)[nH]c1=O | inconclusive [inhibitor, partial curve] | –
12 | C=CCn1c(O)c(C(C)=NCCC2=CCCCC2)c(=O)[nH]c1=O | inconclusive [inhibitor, single point] | –
13 | C=CP(=O)(O)c1ccccc1 | – | inactive: -0.123%
14 | O=C1CC(N2CCC(n3c(=O)[nH]c4ccccc43)CC2)C(=O)N1c1ccc(F)cc1 (stereo unspecified) | – | inactive: -29.2%
15 | Cc1nc2ccccc2c(=O)n1-c1nccs1 | – | inactive: -14.4%
16 | O=C(CNC(=O)c1ccc(Cl)cc1)Nc1ccc(Br)cc1C(=O)c1ccccc1 | inconclusive [inhibitor, single point] | –
17 | Cc1cnc(C)c(Nc2nc(C(N)Cc3ccc(C(F)(F)F)cc3)cs2)n1 (stereo unspecified) | active: 11.6 µM | –
18 | COC(=O)C1=C(c2cccc(Cl)c2)C[C@@H]2CC[C@H]1N2C(=O)N1CCCC1 | active: 7.31 µM | –
19 | O=C(COc1ccccc1)N1CCN(Cc2c[nH]c3ccccc23)CC1 | active: 8.2 µM | –
20 | Cc1cc2cc(CNC(=O)Nc3ccc(Cl)c(Cl)c3)ccc2n1C | inconclusive [inhibitor, single point] | –
21 | c1ccc(C[n+]2ccccc2)cc1 | active: 16.4 µM | –
22 | CC(C)N1CCC2(CC1)NC(CO)(CO)CO2 | – | inactive: -10.2%
23 | CCN1C(=O)c2ccccc2Sc2ccc(NC(=O)c3ccc(C)c(F)c3)cc21 | inconclusive [inhibitor, single point] | –
24 | CC1N=C(N)OC1c1ccccc1 (stereo unspecified) | inconclusive [inhibitor, single point] | –

Row | Structure (SMILES) | Potency | activity change, negative = growth inhibition
25 | CC[n+]1c(/C=C/C=C/c2ccc(N(C)C)cc2)sc2ccccc21 | active: 0.0517 µM | –
26 | COc1ccccc1NC(=O)N(Cc1ccco1)C1CCN(C(C)=O)CC1 | inconclusive [inhibitor, single point] | –
27 | CCN(CC)c1ccc(N=Cc2c(O)n(-c3ccccc3)c(=O)[nH]c2=O)cc1 | inconclusive [inhibitor, partial curve] | –
28 | COC(=O)C1C2c3ccccc3C(c3ccccc32)C1C(=O)OC (stereo unspecified) | inconclusive [inhibitor, partial curve] | –
29 | Cn1c(O)c(/C=C2\N=c3ccccc3=C2CCNC(=S)NC2CC2)c(=O)n(C)c1=O | active: 23.1 µM | –
30 | Cc1nccc2c1[nH]c1ccccc12 | inactive and active: 23.7 µM | –
31 | CS(=O)(=O)c1ccc(C2=C(CNC(=O)c3cccs3)[C@H]3CC[C@@H](C2)N3Cc2ccccc2)cc1 | – | inactive: -21.2%
32 | C=C1C2[C@H](OC(C)=O)[C@@H]3CC(=O)[C@]4(C)OC[C@@]3(C)[C@@]4(O)[C@@H](OC(C)=O)[C@H](OC(C)=O)[C@@]2(COC(=O)c2ccccc2)[C@@H](OC(C)=O)C[C@@H]1O (stereo partly specified) | inconclusive [inhibitor, single point] | –
33 | Cc1ccc(-c2nn3c(C)nnc3c3ccccc23)cc1S(=O)(=O)NCCO | inactive and active: 20.6 µM | –
34 | CNCC(O)c1ccc(OC(=O)C(C)(C)C)c(OC(=O)C(C)(C)C)c1 (stereo unspecified) | inconclusive [inhibitor, single point] | –
35 | CCCN1CCc2cccc3c2[C@H]1Cc1ccc(O)c(O)c1-3 | inconclusive [inhibitor, single point] | –
36 | COc1ccc(-c2cc(C(=O)N3CCN(c4ccccc4OC)CC3)c3cc(C(C)C)ccc3n2)cc1 | active: 20.6 µM | –
37 | O=P(NC1CCCCC1)(Oc1ccccc1)Oc1ccccc1 | inconclusive [inhibitor, single point] | –
38 | CN1C2CCC1CC(C(=O)OC(CO)c1ccccc1)C2 (stereo unspecified) | – | inactive: 0.525% [at 9.04 µM]
39 | O/N=C1/C(=C\c2ccccc2)N2CCC1CC2 | – | inactive: -26%
40 | C/C(=N/O)c1ccc2ccc3ccccc3c2c1 | inconclusive [inhibitor, partial curve] | –
41 | COC(=O)c1ccc(C(C(=O)NC2CCCCC2)N(CCN2CCOCC2)C(=O)Cc2cccs2)cc1 (stereo unspecified) | inconclusive [inhibitor, full curve] | –
42 | COc1ccccc1N1CCN(Cc2ccc(Br)s2)CC1 | – | inactive: -26.7%
43 | O=C(Nc1ccccc1)N1CC2(CCN(C(=O)Oc3ccccc3)CC2)C1 | – | inactive: -10.5%
44 | CCCNc1nc(-c2cc(C(=O)Nc3ccccc3)on2)cc(C(C)C)n1 | inconclusive [inhibitor, single point] | –
45 | Cc1onc(-c2ccccc2)c1C(=O)N1CCC2(CC1)OCCO2 | – | inactive: 3.16%
46 | COC(=O)C1=C(c2ccc(-c3ccccc3)c(F)c2)C[C@@H]2CC[C@H]1N2C(=O)N1CCc2cc(OC)c(OC)cc2C1 | inconclusive [inhibitor, single point] | –
47 | COc1cccc(Nc2nc(C(N)Cc3ccc(F)cc3)cs2)n1 (stereo unspecified) | active: 8.2 µM | –
48 | Cc1nnc(NC(=O)c2cccn(Cc3cccc(F)c3)c2=O)s1 | inconclusive [inhibitor, partial curve] | –

Row | Structure (SMILES) | Potency | activity change, negative = growth inhibition
49 | CC/C(=N\NC(=O)c1ccccc1O)c1c(O)n(Cc2ccccc2)c(=O)[nH]c1=O | – | inactive: 22.5%
50 | COC(=O)C1=C(c2ccc(OCc3ccccc3)cc2)C[C@@H]2CC[C@H]1N2C(=O)NCCCCc1ccccc1 | active: 18.4 µM | –
51 | CC1(C)N(O)C2CCCCC2N1O (stereo unspecified) | inconclusive [inhibitor, single point] | –
52 | CCCc1nc2ccccc2c(=O)n1-c1cccc(OC)c1 | inconclusive [inhibitor, partial curve] | –
53 | CCCCC1(CCCC)C(=O)NC(=Nc2cccc(C)c2)NC1=O | active: 18.4 µM | –
54 | COc1ccc(-c2ccc3c(c2)CN(c2cccc(Cl)c2)Cc2cnnn2-3)cc1 | inconclusive [inhibitor, single point] | –
55 | COC(=O)C1=C(c2ccc(OC)c(OC)c2)C[C@@H]2CC[C@H]1N2C(=O)NCc1cc(C)oc1C(F)(F)F | – | inactive: -22.9%
56 | CC1CCN(CC(=O)c2ccccc2Cl)CC1 | inconclusive [inhibitor, single point] | –
57 | O=C1NCN(c2ccccc2)C12CCN(C(c1ccnc3ccccc13)c1nnnn1Cc1ccccc1)CC2 (stereo unspecified) | inconclusive [inhibitor, single point] | –
58 | O=C(CCN1CCCCC1)Nc1ccc(Br)cc1C(=O)c1ccccc1 | inconclusive [inhibitor, single point] | –
59 | CCOc1ccc(Cn2c(=O)oc3ccc(C)cc32)cc1OC | inconclusive [inhibitor, single point] | –
60 | CCOc1ccc(-n2c(O)c(/C=C3\C=Nc4ccccc43)c(=O)[nH]c2=O)cc1 | – | inactive: -17.5%
61 | CCCC(C)CC1(CCO)C(=O)NC(=S)NC1=O (stereo unspecified) | – | inactive: -5.58%
62 | C[C@@H]1CNC(=O)c2c(C(=O)Nc3cccc(Cl)c3)ncn21 | active: 20.6 µM | –
63 | O=C(NCCN1CCC2(CC1)C(=O)NCN2c1cccc(F)c1)c1ccc2ccccc2c1 | inconclusive [inhibitor, single point] | –
64 | CCCCn1nnnc1C(C1CC1)N1CCC2(CC1)C(=O)NCN2c1ccccc1 (stereo unspecified) | inconclusive [inhibitor, single point] | –
65 | Cc1ccsc1C(=O)C1CCCN(Cc2ccccc2O)C1 (stereo unspecified) | inconclusive [inhibitor, partial curve, poor fit] | –
66 | Cc1cc(C(=O)N=Nc2c(O)n(C)c3ccccc23)c(C)o1 | inconclusive [inhibitor, partial curve] | –
67 | Cc1ccc2c(c1)C1CN(C)CCC1N2C(=O)/C(C#N)=C/c1ccc2c(c1)OCO2 (stereo unspecified) | inconclusive [inhibitor, full curve, poor fit] | –
68 | COc1ccc(NC(=O)C2(C)Cc3c(-c4ccc(N(C)C)cc4)ccnc3O2)cc1OC (stereo unspecified) | inconclusive [inhibitor, single point] | –
69 | Cc1ccc(-c2n[nH]c(=S)n2-c2ccccc2)cc1 | inconclusive [inhibitor, single point] | –
70 | O=C(O)C1Cc2ccccc2N2CCCC12 (stereo unspecified) | – | inactive: -7.42%
71 | O=C(c1cc2cc(Br)ccc2[nH]1)N1CCC2(CC1)OCCO2 | – | inconclusive: -34.5% [inhibitor]
